Source: PubChem BioAssay AID686979 (National Center for Advancing Translational Sciences (NCATS), 2013)
Several values for one entry are separate records, joined by “and”; a condition that tells them apart may be missing. Identical values can stand only once. Hit rate of the full screen: of about 420,000 compounds, about 50,000 (12%) were called active. Inconclusive means that the source gave no clear call. Such entries were picked first, then a sample of the others. Calls come from the whole dose curve; as a rule, active = well fitted inhibition curve with a large enough effect; inconclusive = small, poorly fitted or top-dose-only effect; inactive = flat fitted curve, though single readings scatter. Where the call is inconclusive, the potency comes from a doubtful curve fit. More than one record can exist for a structure, and the calls need not agree.

Assay: qHTS for Inhibitors of human tyrosyl-DNA phosphodiesterase 1 (TDP1): qHTS in cells in presence of CPT; note: nearly all actives have a fitted effect of over 55% in size
Conditions: chicken DT40 Tdp1-/-;hTDP1 cells + 20 nM CPT, ATP luminescence, 48 h; activity change, negative = growth inhibition: at 46.2 µM (top of the series) unless noted
Outline: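 Cell growth measured by CellTiter-Glo luminescence after a minimum 48 h, 37 C compound exposure with 20 nM CPT in Tdp1-knockout DT40 cells stably expressing hTDP1, seeded 400/well; qHTS titration format.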
% is set by controls: 0 for no effect and ±100 for the full control effect; potency is the fitted concentration of half-maximal effect; tags give direction and shape of the fitted curve.

Question: Which “activity change, negative = growth inhibition” value does the source give for `O=C1CC(N2CCN(S(=O)(=O)c3ccccc3F)CC2)C(=O)N1c1ccc(F)cc1F` (stereo unspecified) here?
Answer: Its value is inactive: -3.3%.

Question: With `CC(C)N(C(=O)Cn1cc(S(=O)(=O)CC(=O)Nc2ccccc2)c2ccccc21)C(C)C` as the molecule, how does the Potency read?
Answer: Its Potency is inconclusive: 18.4 µM [inhibitor, single point].

Question: For `Cc1ccc(NC(NC(=O)c2cccnc2)C(Cl)(Cl)Cl)cc1` (stereo unspecified), which Potency is on record?
Answer: The Potency was inconclusive: 18.4 µM [inhibitor, partial curve].

Question: With `COc1ccc(-n2sc3c(c2=S)-c2cc(OC)ccc2NC3(C)C)cc1` as the molecule, how does the Potency read?
Answer: The Potency was inconclusive: 29.1 µM [inhibitor, single point].

Question: For `Cc1ccc(Nc2c(-c3ccc(N4CCOCC4)cc3)nc3ncccn23)c(C)c1`, which Potency is on record?
Answer: The Potency was inconclusive: 29.1 µM [inhibitor, single point] and inconclusive: 23.1 µM [inhibitor, single point].

Question: Which “activity change, negative = growth inhibition” value does the source give for `CCCCCOc1ccccc1Cn1c(=O)oc2ccc(C)cc21` here?
Answer: Its value is inactive: -5.36%.

Question: For `COC(=O)c1sc2ccccc2c1-n1cccc1C(=O)C(=O)Nc1ccc(OC)cc1`, which Potency is on record?
Answer: The Potency was inconclusive: 29.1 µM [inhibitor, single point].

Question: Which Potency does the source give for `COc1ccccc1C(=O)Nc1sc2c(c1C(=O)NCc1ccco1)CCCC2` here?
Answer: The Potency was inconclusive: 29.1 µM [inhibitor, single point].

Question: Which Potency does the source give for `CC(C)C(c1nnnn1Cc1ccccc1)N1CCN(Cc2ccc3c(c2)OCO3)CC1` (stereo unspecified) here?
Answer: The Potency was inconclusive: 18.4 µM [inhibitor, single point].

Question: For `O=C(NCCN1CCNC1=O)c1ccc2sc([C@@H]3O[C@H](CO)[C@H](O)[C@H](O)[C@H]3O)nc2c1`, which “activity change, negative = growth inhibition” value is on record?
Answer: Its value is inactive: 9.68%.

Question: Which Potency does the source give for `O=C(Nc1ccccc1-c1nnn(CC(=O)N2CCN(c3ccccc3)CC2)n1)c1cccs1` here?
Answer: Its Potency is active: 14.6 µM.

Question: For `Cc1ccc(N(C(=O)C(F)(F)F)C(C(=O)NC2CCCCC2)c2cccs2)cc1` (stereo unspecified), which Potency is on record?
Answer: Its Potency is inconclusive: 10.3 µM [inhibitor, partial curve].

Question: Which Potency does the source give for `CCc1nnc(NC(=O)c2oc3cc(C)c(C)cc3c2C)s1` here?
Answer: Its Potency is inconclusive: 29.1 µM [inhibitor, single point].

Question: With `O=C(COC(=O)C1=NN(c2ccccc2)C(=O)CC1)Nc1nc(-c2ccc(F)cc2)cs1` as the molecule, how does the Potency read?
Answer: The Potency was inconclusive: 0.231 µM [inhibitor, full curve, poor fit].

Question: Which Potency does the source give for `CCC(Oc1ccccc1)C(=O)OCC(=O)Nc1sccc1C(N)=O` (stereo unspecified) here?
Answer: Its Potency is inconclusive: 25.9 µM [inhibitor, single point].

Question: For `Cc1onc(-c2c(F)cccc2Cl)c1C(=O)N(C)C1CCCCC1`, which Potency is on record?
Answer: The Potency was inconclusive: 29.1 µM [inhibitor, single point].

Question: With `CCCCN(C(=O)c1ccc(S(=O)(=O)N2CCCCC2)cc1)C1CCS(=O)(=O)C1` (stereo unspecified) as the molecule, how does the activity change, negative = growth inhibition read?
Answer: Its activity change, negative = growth inhibition is inconclusive: -31.3% [inhibitor].

Question: For `Cc1csc(N2CCCC2c2nc3cc(C(F)(F)F)ccc3n2CCOCCO)n1` (stereo unspecified), which Potency is on record?
Answer: Its Potency is active: 9.2 µM.

Question: With `COC(=O)[C@@]12C[C@@H](CC(=O)NCCCCc3ccccc3)C(=O)N(Cc3ccco3)C1=CCC(C)(C)C2` as the molecule, how does the Potency read?
Answer: Its Potency is active: 16.4 µM.

Question: Which Potency does the source give for `N#Cc1nc(-c2ccc(OCc3ccc(Cl)cc3)cc2)oc1NCCCn1ccnc1` here?
Answer: Its Potency is inconclusive: 25.9 µM [inhibitor, single point].

Question: Which Potency does the source give for `CCCCSc1ccc2nc(-c3ccc(C#N)cc3)cn2c1` here?
Answer: Its Potency is inconclusive: 14.6 µM [inhibitor, partial curve].

Question: For `C=CCn1c(=NC(=O)C2COc3ccccc3O2)sc2cccc(OC)c21` (stereo unspecified), which Potency is on record?
Answer: Its Potency is inconclusive: 29.1 µM [inhibitor, single point].

Question: For `CCC1CCCCN1CCCNC(=O)Cn1ncc2c(C)n(Cc3ccccc3Cl)c(C)c2c1=O` (stereo unspecified), which Potency is on record?
Answer: The Potency was active: 18.4 µM.

Question: Which Potency does the source give for `CCn1cc(CNC(=O)c2ccc(OC3CCN(Cc4ccccn4)CC3)cc2)cn1` here?
Answer: Its Potency is inconclusive: 16.4 µM [inhibitor, single point].

Question: With `Cc1cc(C)nc(SCc2ccc(C(=O)NNC(=O)Nc3cccc(Cl)c3)cc2)n1` as the molecule, how does the Potency read?
Answer: Its Potency is active: 20.6 µM.

Question: For `C[C@H](CO)N1C[C@H](C)[C@H](CN(C)Cc2ccncc2)OCc2ccccc2-c2c(n(C)c3ccccc23)C1=O`, which Potency is on record?
Answer: The Potency was active: 25.9 µM.

Question: With `Cc1cccc2nc(-c3ccco3)c(Nc3ccccc3)n12` as the molecule, how does the Potency read?
Answer: Its Potency is inconclusive: 29.1 µM [inhibitor, single point].

Question: For `OCC1(Cc2ccc(F)cc2F)CCCN(Cc2ccc(Cl)cc2)C1` (stereo unspecified), which activity change, negative = growth inhibition is on record?
Answer: Its activity change, negative = growth inhibition is inconclusive: -34.4% [inhibitor].

Question: With `O=C(NC1CCCC1)c1ccc(CSc2nc3cccnc3n2Cc2ccccc2F)cc1` as the molecule, how does the Potency read?
Answer: The Potency was inconclusive: 11.6 µM [inhibitor, single point].

Question: Which Potency does the source give for `COc1ccc(N(Cc2ccccc2)S(=O)(=O)c2cccc(C(=O)Nc3ccccn3)c2)cc1` here?
Answer: Its Potency is inconclusive: 16.4 µM [inhibitor, single point].

Question: For `CCn1c(=NC(=O)CSCC(=O)Nc2nccs2)sc2ccccc21`, which Potency is on record?
Answer: Its Potency is inconclusive: 29.1 µM [inhibitor, single point].

Question: With `Nc1c(C(=O)Nc2ccc3c(c2)OCCO3)nnn1Cc1ccccc1` as the molecule, how does the Potency read?
Answer: Its Potency is inconclusive: 29.1 µM [inhibitor, single point].

Question: With `CCOC(=O)Cn1c(=NC(=O)c2cc(-c3cccs3)nc3ccccc23)sc2cc(S(N)(=O)=O)ccc21` as the molecule, how does the Potency read?
Answer: The Potency was active: 23.1 µM.

Question: For `Cc1ccccc1C(OCCN(C)C)c1ccccc1` (stereo unspecified), which Potency is on record?
Answer: The Potency was active: 23.1 µM.

Question: For `Cc1cc2nc(-c3ccco3)c(CC(C)(C)C)n2c(C)c1Br`, which Potency is on record?
Answer: Its Potency is active: 23.1 µM.

Question: With `COc1ccc(OC)c(N2CC(O)(c3ccccc3)[N+]3=C2SCCC3)c1` (stereo unspecified) as the molecule, how does the Potency read?
Answer: Its Potency is inconclusive: 11.6 µM [inhibitor, partial curve].

Question: Which Potency does the source give for `Cc1cc(=O)[nH]c(N/N=C/C(C)c2ccccc2)n1` (stereo unspecified) here?
Answer: Its Potency is inconclusive: 29.1 µM [inhibitor, single point].

Question: Which Potency does the source give for `CCc1ccc2[nH]c(=O)c(C(c3nnnn3CC3CCCO3)N3CCCc4ccccc43)cc2c1` (stereo unspecified) here?
Answer: Its Potency is inconclusive: 29.1 µM [inhibitor, single point].

Question: With `C/C(=N/NC(=O)c1cc(O)c(O)c(O)c1)c1ccc([N+](=O)[O-])cc1` as the molecule, how does the Potency read?
Answer: Its Potency is inconclusive: 11.6 µM [inhibitor, single point].

Question: With `O=C(NCc1ccccc1)c1cc(C2CCCCN2C(=O)CCc2ccccc2)on1` (stereo unspecified) as the molecule, how does the Potency read?
Answer: The Potency was inconclusive: 16.4 µM [inhibitor, single point].

Question: With `CC(C)Oc1ccc(Br)cc1C(=O)N/N=C/c1c[nH]c2ccccc12` as the molecule, how does the Potency read?
Answer: The Potency was inconclusive: 29.1 µM [inhibitor, single point].
